Data taken from paper PMC4336329 (PLoS ONE, 2015).
Among all 310,000 compounds or so, about 2,200 (0.71%) showed an effect of 50% or more. The effect is printed as a negative number. This is one part of the list.

Biological target: human ether-à-go-go-related gene (hERG) potassium channel (human, UniProt Q12809)
Experiment: primary screen, population patch clamp on CHO cells stably expressing hERG

Chain of human ether-à-go-go-related gene (hERG) potassium channel (Q12809 whole entry, looked up): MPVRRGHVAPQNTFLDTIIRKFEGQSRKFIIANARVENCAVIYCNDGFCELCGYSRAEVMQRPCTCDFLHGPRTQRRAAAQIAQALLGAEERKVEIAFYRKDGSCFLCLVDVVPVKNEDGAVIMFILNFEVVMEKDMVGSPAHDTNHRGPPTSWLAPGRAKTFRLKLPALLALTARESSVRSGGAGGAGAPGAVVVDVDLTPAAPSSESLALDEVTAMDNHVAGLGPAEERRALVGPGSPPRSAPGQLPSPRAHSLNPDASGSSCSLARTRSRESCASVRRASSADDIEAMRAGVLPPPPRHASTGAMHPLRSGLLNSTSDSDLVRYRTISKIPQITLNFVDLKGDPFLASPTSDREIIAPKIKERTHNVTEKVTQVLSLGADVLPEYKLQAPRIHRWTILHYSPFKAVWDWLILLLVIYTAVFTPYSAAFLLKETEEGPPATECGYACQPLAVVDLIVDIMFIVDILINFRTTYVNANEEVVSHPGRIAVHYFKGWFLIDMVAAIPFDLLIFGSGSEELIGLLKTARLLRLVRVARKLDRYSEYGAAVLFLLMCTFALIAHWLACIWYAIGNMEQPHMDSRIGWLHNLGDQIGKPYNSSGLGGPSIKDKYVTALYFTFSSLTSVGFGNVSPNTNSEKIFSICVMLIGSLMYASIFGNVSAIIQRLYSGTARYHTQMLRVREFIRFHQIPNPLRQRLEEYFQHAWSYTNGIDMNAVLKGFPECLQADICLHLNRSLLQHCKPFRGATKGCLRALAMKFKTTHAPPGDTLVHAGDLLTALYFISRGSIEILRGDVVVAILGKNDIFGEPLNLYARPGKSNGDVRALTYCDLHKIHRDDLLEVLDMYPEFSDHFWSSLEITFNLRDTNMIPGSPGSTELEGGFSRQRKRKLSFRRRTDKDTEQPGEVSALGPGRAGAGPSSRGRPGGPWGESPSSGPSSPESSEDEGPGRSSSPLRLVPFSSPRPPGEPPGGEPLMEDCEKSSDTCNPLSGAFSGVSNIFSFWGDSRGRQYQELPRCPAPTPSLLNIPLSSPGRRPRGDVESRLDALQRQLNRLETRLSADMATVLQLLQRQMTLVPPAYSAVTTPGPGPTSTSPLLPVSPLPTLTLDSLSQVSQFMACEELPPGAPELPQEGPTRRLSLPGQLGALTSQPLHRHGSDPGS

SMILES	hERG current change (%, negative = inhibition) at 1uM
Cc1ccc(S(=O)(=O)/N=C/c2ccco2)cc1	12.8%
CCOC(=O)C1CCCN(C(=O)CCn2nnnc2CN2CCOCC2)C1 (centres unmarked)	13.6%
CCC(C)n1c(=N)c(C#N)cc2c(=O)n3ccccc3nc21 (centres unmarked)	-24.6%
N#Cc1c(-c2ccccc2)cc(-c2ccc3c(c2)OCO3)[nH]c1=O	11%
Cn1c(SCC(=O)NC2CCCCCC2)nnc1-c1ccco1	6.62%
CC(C)OCCCNC(=O)CCSc1ccc(Cl)cc1	6.01%
O=C(Cn1c(=O)n(-c2ccc(F)cc2)c(=O)c2sccc21)c1ccccc1	5.42%
Cc1cccc(OCCCC(=O)Nc2ccc(S(=O)(=O)Nc3onc(C)c3C)cc2)c1C	13.9%
COC(=O)Cc1ccc2sc(-c3ccccc3)nc2c1	12.9%
CCOc1ccc(CNc2ncnc(N)n2)cc1	7.76%
CC1(C)CC2c3cccc(C(=O)O)c3C(=O)N2c2c1ccc1ccccc21 (centres unmarked)	8.62%
COC(=O)[C@@]1(Cc2ccc(F)cc2)[C@H]2c3cc(C(=O)N(C)C)n(Cc4c(CO)[nH]cc(C)c4=O)c3C[C@H]2CN1C(=O)c1ccccc1	20.7%
COC(=O)/C(C#N)=C/c1c(N2CCN(c3ccccc3)CC2)nc2ccccn2c1=O	-21.6%
COC(=O)c1ccc(COc2ncnc3ccccc23)o1	18.3%
Cc1c(C(=O)OC(C)C)sc(NC(=O)C2CCCO2)c1C(=O)OC(C)C (centres unmarked)	9.74%
O=C(c1cccs1)N1CCCC(c2nc3c(nnn3Cc3ccc(F)cc3)c(=O)[nH]2)C1 (centres unmarked)	16%
COc1ccc(Nc2c(-c3ccc(OC)cc3)nc3cnccn23)cc1	-6.44%
CCn1nc(NS(=O)(=O)c2ccccc2)c2cc3cccc(C)c3nc21	7.16%
O=C(Cn1nc(C(F)(F)F)c2c1CCCC2)NCc1ccco1	-11.9%
CN(C)C(=O)Oc1noc2cc(Cl)ccc12	12.5%
CC1(C)CC(=O)C=C(Nc2ccc(Br)cn2)C1	10.5%
Cc1noc(/C=C/N(C)C)c1S(=O)(=O)N1CCCC(C(=O)NCCC2=CCCCC2)C1 (centres unmarked)	3.61%
CN(CC(=O)Nc1ccc(S(=O)(=O)N2CCCC2)cc1)CC(=O)Nc1ccc(F)c(F)c1F	-2.71%

SMILES	hERG current change (%, negative = inhibition) at 1uM
CC1(c2ccccc2)NC(=O)N(CC(=O)Nc2ccccc2N2CCCC2)C1=O (centres unmarked)	7.44%
COc1cccc(NS(=O)(=O)c2ccc(S(=O)(=O)N3CCOCC3)cc2)c1	-3.54%
CC1CCCCC1NC(=O)C1CCN(S(=O)(=O)c2cccc3nonc23)CC1 (centres unmarked)	12.4%
COc1ccc(CCNC(=O)CN(c2ccc(OC)c(OC)c2)S(C)(=O)=O)cc1	-1.61%
CCc1nnc(NC(=O)CSc2nnc(-c3ccco3)o2)s1	9.81%
COc1ccc(S(=O)(=O)N2CCN(Cc3ccco3)CC2)cc1.O=C(O)C(=O)O	17.3%
Cc1c(C(=O)OC2CCC(C)CC2)[nH]c2c1C(=O)CCC2 (centres unmarked)	4.17%
NC(=O)c1ccc(NCc2ccco2)c([N+](=O)[O-])c1	12.9%
COc1ccc(C(C(=O)NC2CCCCC2)N(C(=O)c2cccs2)c2ccc3c(c2)OCO3)cc1 (centres unmarked)	14.3%
CC1CC1C(=O)Nc1nc(-c2ccc(Cl)s2)cs1 (centres unmarked)	14.5%
CC(C)CN(Cc1cc(=O)oc2cc(-c3ccccc3)c(O)cc12)CC(C)C	25.8%
O=C1Nc2ccccc2/C1=N/c1sc2c(c1C(=O)NCCc1ccccc1)CCCC2	7.93%
CC(Oc1ccccc1)C(=O)OCC(=O)Nc1sccc1C(N)=O (centres unmarked)	3.53%
COc1cc(CCNC(=O)CCCn2c(=O)c3cccn3c3cccnc32)cc(OC)c1OC	14.4%
CCOc1ccc(CCNC(=O)CN2CCN(Cc3ccc(F)cc3)C2=O)cc1OCC	12.4%
CCCOC(=O)c1ccc(NC(=O)c2ccccc2[N+](=O)[O-])cc1	11.8%
O=C(Cn1nc(-c2ccccc2)ccc1=O)Nc1ccc(NC(=O)c2ccccn2)cc1	12.2%
Cc1ccc(C)c(S(=O)(=O)N2CCN(C(=O)CCc3nc4ccccc4c(=O)[nH]3)CC2)c1	-4.52%
CC(C)(Oc1ccc(Cl)cc1)C(=O)NC1CCN(Cc2ccccc2)CC1	-44.5%
Cc1cccc(NS(=O)(=O)c2cccc(C(=O)N3CCN(c4ccccn4)CC3)c2)c1	14.4%
CCn1c(SCc2nc3ccccc3nc2C)nnc1-c1cccs1	6.23%
COc1ccc(-c2cc(NC(=O)c3cncn3-c3ccccc3)ccc2OC)cc1	11%
CCCCOc1ccc(/C=C2/Sc3ccccc3C2=O)cc1	6.29%

SMILES	hERG current change (%, negative = inhibition) at 1uM
COc1ccccc1CNN.Cl	13.8%
Cc1ccccc1C(=O)Nc1ccc(Cl)cn1	6.95%
O=C(COC(=O)c1cc[n+]([O-])cc1)Nc1ccc(SC(F)F)cc1	-0.0806%
CCOC(=O)c1ccc(S(=O)(=O)N2CCC(C(=O)NCC3CCCCC3)CC2)cc1	9.18%
Cc1cc(N2CCCC2)ccc1NC(=O)CN1C(=O)NC2(CCCCC2)C1=O	6%
CCOc1cc(NC(=O)C2CCCCC2)c(OCC)cc1NC(=O)c1ccccn1	11.9%
CCOc1ccc(N/C(C)=C/C(=O)c2ccc3c(c2)OCCO3)cc1	11.9%
Cc1ccc(S(=O)(=O)N2CCN(Cc3cc4c(cc3Br)OCCO4)CC2)cc1	6.52%
Cn1c(Oc2ccccc2NCc2cc(Br)ccc2O)cc(=O)n(C)c1=O	11.8%
CCN(CC)S(=O)(=O)c1ccc(N/N=C(\C)c2ccncc2)c([N+](=O)[O-])c1	13.6%
Cc1nnc(Oc2ccccc2F)c2ccccc12	11.8%
Cc1[nH]ccc(=O)c1Cc1c(Cl)cccc1Cl	-1.69%
N/C(=N\OC(=O)c1ccncc1)c1cccc([N+](=O)[O-])c1	7.79%
Cc1cc(C)c2c(CN3CCN(Cc4ccccc4)CC3)cc(=O)oc2c1C.Cl	-7.5%
CN(CC(=O)Nc1ccccc1Cl)C(=O)COC(=O)CSc1ccc(Cl)cc1	10.3%
COc1ccc(/C=N/n2cnc3c([nH]c4ccccc43)c2=O)cc1COc1ccccn1	5.27%
C/C(=N/NC(=O)c1ccc(Cl)s1)c1cccnc1	4.7%
Cc1sc(NC(=O)CSc2nnc(COc3ccc(Cl)cc3)n2C)c(C#N)c1C	12.1%
c1ccc(CNc2ccc3ccccc3n2)nc1	4.46%
Cc1cc(C)n(-c2nc3ccccc3nc2Nc2ccc3[nH]c(=O)[nH]c3c2)n1	1.42%
CCN(CCCNC(=O)CCc1nc(-c2ccc(C)cc2)no1)c1cccc(C)c1	7.68%
O=C(CCCOc1ccc(Cl)cc1)Nc1ccc(N2CCOCC2)cc1	10.7%
Cc1ccc(C(=O)CCC(=O)Nc2cc(C)ccn2)cc1	3.03%

SMILES	hERG current change (%, negative = inhibition) at 1uM
Nc1nnn(CC(=O)N/N=C/c2ccccc2Cl)n1	14.4%
Cn1ccnc1C1CCCCN1C(=O)c1cc(COc2ccc(F)cc2Cl)on1 (centres unmarked)	1.66%
O=C(NCCc1ccc2c(c1)OCCO2)c1cc2ccccc2o1	-16.6%
S=C(NCCc1ccccn1)NC1CCCCC1	11.3%
Cc1ccc(C2OC34CCCCCC3C(C#N)(C(=N)O4)C2(C#N)C#N)cc1 (centres unmarked)	9.09%
c1ccc(-c2noc(-c3ccc4c(c3)OCO4)n2)nc1	14.3%
O=C(O)CN(Cc1ccco1)S(=O)(=O)c1ccc(F)cc1	11.9%
Br.CCn1c(-c2ccccc2)csc1=Nc1ccc(O)cc1	4.88%
CC(=O)Nc1ccc(NC(=O)c2ccc(NC(=O)c3ccccc3)cc2)cc1	-4.31%
Cn1nc(OC(=O)Nc2ccc(F)cc2)cc1C(F)(F)F	2.69%
CNC(=S)N(CCc1c(C)[nH]c2ccccc12)Cc1cccnc1	7.21%
O=C(Nc1ccccc1C(=O)Nc1ccc(F)cc1)c1ccco1	6.37%
COc1ccccc1C1C2=C(N=c3s/c(=C/c4cccc(OCC(=O)O)c4)c(=O)n31)c1ccccc1CC2 (centres unmarked)	23.4%
CCCCn1cc(SCC(=O)O)c2ccccc21	7.37%
COc1ccc(C(=O)Nc2nccs2)cc1	14.1%
CC1CCc2ccccc2N1C(=N)N(C)C.Cl (centres unmarked)	10.3%
COCC(=O)Nc1ccc(F)cc1	17.8%
COc1ccc(CCCC(=O)NC2CCCCC2)cc1	11.1%
CCC(COC(C)=O)Nc1nc2c([nH]1)c(=O)n(C)c(=O)n2C (centres unmarked)	11.8%
Cc1ccc2nc(-c3cccs3)oc(=O)c2c1	7.58%
